Source: the supplement of paper PMC11417369
The other results are listed elsewhere or left out.

What follows are sequences tested on PfHDP1 homeodomain (GST-tagged) (assay: gcPBM binding intensity (ln(normalized median fluorescence intensity)); higher = stronger DNA binding).
In short: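 The binding buffer was 1× PBS containing 1% milk, 0.2 mg/ml BSA, 0.5% salmon testes DNA and 0.03% Triton X-100. In it, GST-tagged P. falciparum DNA-binding domains expressed in E. coli were applied for 1 h to an Agilent 4 × 180k array of primer-extended double-stranded 36-bp intergenic genomic probes plus negative controls. Binding intensity, read with Alexa488 anti-GST antibody and a 488 nm scan, is the highest Masliner-normalised natural-log median intensity across replicate spots of either probe orientation.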
With “AAAAAAAAAAGACACACACACACACGGAGATATATA [CACACA_site6216]” the “gcPBM binding intensity (ln)” value was 6.9.
In the case of “AATTTTAATTATATCACACATAATATATACCAAAAA [CACACA_site6011]”, the “gcPBM binding intensity (ln)” value is reported as 6.29.
“TACATATTTTTATATACACACAATAATTACTATAAA [CACACA_site6879]” was tested, and the “gcPBM binding intensity (ln)” value was 6.55.
In the case of “TCTTCCGCTTTATGGAGTACTATGGTAGCCTTTCCT [XGTACX_site2958]”, the “gcPBM binding intensity (ln)” value is reported as 5.87.
“GACCTACAAAAAGGCACACATATACGCATACATACA [CACACA_site2179]” was tested, and the “gcPBM binding intensity (ln)” value was 6.8.
With “CATATTTTCAAAATTAGTACATAAAAAAAAAAATAT [XGTACX_site3101]” the “gcPBM binding intensity (ln)” value was 6.53.
For “TATAATCATATATACACACACATATATATATATATA [CACACA_site2168]”, the “gcPBM binding intensity (ln)” value was 9.36.
In the case of “AATATTTTTTGTTTTACACACATATATAGATATATA [CACACA_site7662]”, the “gcPBM binding intensity (ln)” value is reported as 6.82.
For “CAGATATTTGTTCATATACACACTTTTGATAAAATA [CACACA_site1219]”, the “gcPBM binding intensity (ln)” value was 6.54.
For “CAAAAAATGAAACACACACACACACCCATAAATAAA [CACACA_site1231]”, the “gcPBM binding intensity (ln)” value was 6.9.
In the case of TCATATATAAAAAGGGTGCTTTTAAAAGAATGGATT, the “gcPBM binding intensity (ln)” value is reported as 7.06.
In the case of “TTTTTTTTTGTATTTTCACACATTTTTTTTTTTTTT [CACACA_site5407]”, the “gcPBM binding intensity (ln)” value is reported as 6.33.
For “TTATTTAAACAAATCACACACAAATATATATACATA [CACACA_site2019]”, the “gcPBM binding intensity (ln)” value was 6.61.
For “TTTTTTGGGTAAAATTATAAAATATGTATATATAAA [CACACA_negctrl_site27]”, the “gcPBM binding intensity (ln)” value was 6.12.
“ATATGCATAAAAAGAGGTACACATAAAATATATATA [XGTACX_site5864]” was tested, and the “gcPBM binding intensity (ln)” value was 6.81.
“TATACACATATATAAAGTACATATATGTGTAAAAAA [XGTACX_site8582]” was tested, and the “gcPBM binding intensity (ln)” value was 6.8.
In the case of “AGAATAAATATGCACACATGCATATATTTTTACACT [TGCATGCA_site893]”, the “gcPBM binding intensity (ln)” value is reported as 10.3.
“TTAGTCCATATTTTTGCACACCATTTTTTTTTTTTT [CACACA_site3927]” was tested, and the “gcPBM binding intensity (ln)” value was 10.3.
For “ATCCTTAATATGAACACACAAATATATTGCACATAT [CACACA_site6230]”, the “gcPBM binding intensity (ln)” value was 10.9.
“ATATATTTATATTGTACACACATTTATGCATATATA [CACACA_site7502]” was tested, and the “gcPBM binding intensity (ln)” value was 6.85.
In the case of “AAATATACAATATTCACACAAAAAAATACATTACAA [CACACA_site5004]”, the “gcPBM binding intensity (ln)” value is reported as 6.57.
With “TGTTTTTATAAAATAAATAAATATATATATATATAT [CACACA_negctrl_site502]” the “gcPBM binding intensity (ln)” value was 9.03.
With “TTTCTTACAAAAGCTAGAGTTTTTTTTTTTTTTTTT [XGTACX_negctrl_site341]” the “gcPBM binding intensity (ln)” value was 6.43.
With “TAAATTTGTGTTATTAAAAAAATGGTTTAAAAATGT [XGTACX_negctrl_site352]” the “gcPBM binding intensity (ln)” value was 6.53.
For “TCTTTTTCATCTTTCAACAAAAAATAATATATGTGT [CACACA_negctrl_site866]”, the “gcPBM binding intensity (ln)” value was 6.58.
With “AAAAATAAAAAATATAAAAATATAAAAATATAAAAA [XGTACX_negctrl_site51]” the “gcPBM binding intensity (ln)” value was 6.29.
TTATATTTTCTCCGCGTGCACATATGTATACTATAC was tested, and the “gcPBM binding intensity (ln)” value was 9.66.
For “TAGGGTAGTTATAATTGTACTTTTCTCCAAAAAAAA [XGTACX_site7321]”, the “gcPBM binding intensity (ln)” value was 6.44.
With “TTTTTGTTTTTTTGTTTATCGTTCGTGACTACATGA [TGCATGCA_negctrl_site124]” the “gcPBM binding intensity (ln)” value was 6.62.
“GAAATCTAAATAGAAACACACATATATATATATATA [CACACA_site3863]” was tested, and the “gcPBM binding intensity (ln)” value was 9.3.
“ATAAACAAACATAAATCTGATTTTAATTTTTTTAAG [CACACA_negctrl_site313]” was tested, and the “gcPBM binding intensity (ln)” value was 5.81.
For “TAGGTAAATGCAAATTGGTTTAAATCAAAATATAAA [XGTACX_negctrl_site250]”, the “gcPBM binding intensity (ln)” value was 7.27.
For “TTTATTATTTTAACGTGTACAAGGTATATAATATTC [XGTACX_site5241]”, the “gcPBM binding intensity (ln)” value was 6.67.
With “TGATATTATATATATACACACATGTATGTATTTATA [CACACA_site4874]” the “gcPBM binding intensity (ln)” value was 6.56.
“GTATCAAAAGAATACACACACACATACAGATATATA [CACACA_site5975]” was tested, and the “gcPBM binding intensity (ln)” value was 6.89.
For “TTGTAATTATTAAACACACACAAAATATATATAATA [CACACA_site2523]”, the “gcPBM binding intensity (ln)” value was 7.04.
For “AGGTGAGCTCAGACTACACACACAAAGAAAAAAATA [CACACA_site8439]”, the “gcPBM binding intensity (ln)” value was 6.79.
In the case of “CCATAAAAATATAATACACACATATATATTAACATA [CACACA_site4102]”, the “gcPBM binding intensity (ln)” value is reported as 6.62.
“AAAAAAAAAAAAAACACACACATACAGACAAAAATG [CACACA_site83]” was tested, and the “gcPBM binding intensity (ln)” value was 6.89.
With CTAAATTATAGATCAGTGCAATTTAATATGAGTCCA the “gcPBM binding intensity (ln)” value was 8.76.
“TGCGTATATATATACACACACATATATATATTTTAA [CACACA_site1952]” was tested, and the “gcPBM binding intensity (ln)” value was 6.76.
In the case of “TGTTTTTAAAAAAAAAAAAAATCACACCGGCAGGTA [CACACA_negctrl_site1437]”, the “gcPBM binding intensity (ln)” value is reported as 5.9.
“TATTTCATTAATGTCACTTTGAAAGAAATGAAAAAA [CACACA_negctrl_site1803]” was tested, and the “gcPBM binding intensity (ln)” value was 6.44.
For “AAAAAAAAAAGACACACACACAAAATAAACAAACAA [CACACA_site7308]”, the “gcPBM binding intensity (ln)” value was 6.92.
With “CATATTATTCTTTTCACACACGCGTTAATAATAATC [CACACA_site3931]” the “gcPBM binding intensity (ln)” value was 7.32.
